Data: publication PMC4336329 (PLoS ONE, 2015)
Among all 310,000 compounds or so, about 2,200 (0.71%) showed an effect of 50% or more. Effects have a minus sign here. Some of the results follow.

Target: human ether-à-go-go-related gene (hERG) potassium channel (human, UniProt Q12809)
Assay: primary screen, population patch clamp on CHO cells stably expressing hERG

Sequence of human ether-à-go-go-related gene (hERG) potassium channel (Q12809 whole entry, looked up): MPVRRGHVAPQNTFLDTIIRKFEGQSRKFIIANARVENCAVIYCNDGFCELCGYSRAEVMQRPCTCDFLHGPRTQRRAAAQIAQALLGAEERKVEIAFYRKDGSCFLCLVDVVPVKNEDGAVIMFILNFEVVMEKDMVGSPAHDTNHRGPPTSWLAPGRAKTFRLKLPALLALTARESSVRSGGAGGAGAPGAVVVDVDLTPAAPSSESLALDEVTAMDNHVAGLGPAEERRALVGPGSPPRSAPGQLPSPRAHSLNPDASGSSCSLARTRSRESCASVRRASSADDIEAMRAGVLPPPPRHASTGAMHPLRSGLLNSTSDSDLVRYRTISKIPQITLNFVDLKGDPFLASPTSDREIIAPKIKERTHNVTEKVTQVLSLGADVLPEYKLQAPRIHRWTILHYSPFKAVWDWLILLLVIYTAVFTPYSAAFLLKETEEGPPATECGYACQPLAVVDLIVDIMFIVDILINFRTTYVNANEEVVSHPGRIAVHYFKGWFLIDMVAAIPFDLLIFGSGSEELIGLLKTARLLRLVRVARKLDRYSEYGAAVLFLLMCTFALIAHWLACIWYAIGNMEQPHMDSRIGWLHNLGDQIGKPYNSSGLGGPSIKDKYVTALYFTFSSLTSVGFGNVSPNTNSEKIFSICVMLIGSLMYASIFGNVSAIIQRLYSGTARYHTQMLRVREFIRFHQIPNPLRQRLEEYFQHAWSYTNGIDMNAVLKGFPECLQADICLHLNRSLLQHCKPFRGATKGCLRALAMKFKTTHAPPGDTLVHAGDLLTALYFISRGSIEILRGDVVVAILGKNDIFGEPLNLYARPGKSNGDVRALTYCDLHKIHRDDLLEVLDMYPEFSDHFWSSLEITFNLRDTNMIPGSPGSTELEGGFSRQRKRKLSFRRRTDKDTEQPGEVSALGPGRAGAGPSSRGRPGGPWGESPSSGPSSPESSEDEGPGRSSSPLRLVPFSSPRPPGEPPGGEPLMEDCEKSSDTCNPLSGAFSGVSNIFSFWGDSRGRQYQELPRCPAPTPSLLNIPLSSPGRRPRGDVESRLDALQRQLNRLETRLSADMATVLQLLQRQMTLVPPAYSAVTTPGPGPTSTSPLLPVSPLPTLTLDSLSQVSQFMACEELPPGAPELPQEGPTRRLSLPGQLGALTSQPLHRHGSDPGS

First: CCC(NS(=O)(=O)c1ccc(C)cc1)C(=O)Nc1ccc(NC(C)=O)cc1 (stereo not shown)
Second: Cc1cc(C)nc(NS(=O)(=O)c2ccc(NC(=O)c3cccs3)cc2)n1
The “hERG current change (%, negative = inhibition) at 1uM” value of the first is lower: -1.54% for the first, 7.1% for the second.

First: COc1ccc(C(=O)CSc2nnc(CN3CCCCC3)n2-c2ccc(F)cc2)cc1
Second: COc1ccc(C(=O)C2CCN(C(=O)Nc3ccc(C)cc3)CC2)cc1
The “hERG current change (%, negative = inhibition) at 1uM” value of the first is lower: -15.7% for the first, 5.45% for the second.

Compared with `COc1ccc(C(=O)N[C@H](C(=O)NCc2ccco2)C(C)C)cc1`, `CCOC(=O)c1ccc(NC(=O)c2ccco2)cc1` is lower in “hERG current change (%, negative = inhibition) at 1uM” value: 10.2% for the first, 8.74% for the second.

Going from `Cc1ccc(CC(=O)NC2CCN(C)CC2)cc1` to `CN1CCN(S(=O)(=O)c2ccc(NC(=O)C3CCCCC3)cc2)CC1`, the “hERG current change (%, negative = inhibition) at 1uM” value falls from 15.7% to -4.12%.

First: O=C(CSCc1ccccc1)N/N=C/c1ccccc1OCc1ccccc1
Second: CN(C(=O)c1ccc(COc2ccccc2Cl)o1)c1ccccc1
The “hERG current change (%, negative = inhibition) at 1uM” value of the first is lower: 7.09% for the first, 7.28% for the second.

Compared with `OCCn1nc(-c2ccccc2)cc1-c1ccccc1`, `O=C(Cn1nnc(-c2ccccc2)n1)c1ccccc1` is lower in “hERG current change (%, negative = inhibition) at 1uM” value: 10.8% for the first, 5.04% for the second.

First: Cc1cc(O)c(C(C)C)cc1NC1=NS(=O)(=O)c2ccccc21
Second: Cc1ccc(NC(=O)Nc2cccc(C)n2)c(C)c1
The “hERG current change (%, negative = inhibition) at 1uM” value of the first is higher: 4.53% for the first, -1.56% for the second.

First: O=C(CCC(=O)N1CCOc2ccccc21)N1CCN(c2ccccc2)CC1
Second: CCOc1ccc(C(=O)NCC(=O)N2CCN(c3ccccc3O)CC2)cc1
The “hERG current change (%, negative = inhibition) at 1uM” value of the first is lower: -14.3% for the first, 0.0889% for the second.

Compared with `O=c1[nH]c(=S)n(-c2ccc(Cl)cc2)c(O)c1C=Nc1ccc(N2CCOCC2)cc1`, `CN(C)c1ccc(/C=C(\NC(=O)c2ccccc2)C(=O)NCCN2CCOCC2)cc1` is lower in “hERG current change (%, negative = inhibition) at 1uM” value: 11% for the first, 8% for the second.

Compared with `COc1cccc(C2=NO[C@@H]3C(=O)N(c4ccc5c(c4)OCCO5)C(=O)[C@H]23)c1OC`, `Cc1ccccc1N1C(=O)C2C3CC(=O)C(c4ccccc43)C2C1=O` (stereo not shown) is lower in “hERG current change (%, negative = inhibition) at 1uM” value: 12.6% for the first, 9.82% for the second.

First: CC(=O)c1ccc2c(c1)C1C(Cl)C(Sc3ccccc3[N+](=O)[O-])CC1C(c1ccccc1[N+](=O)[O-])N2 (stereo not shown)
Second: NC(=O)CC(NC(=O)c1ccc(Br)cc1)c1ccc(N2CCC(Cc3ccccc3)CC2)c([N+](=O)[O-])c1 (stereo not shown)
The “hERG current change (%, negative = inhibition) at 1uM” value of the first is higher: 11.1% for the first, -5.26% for the second.

Going from `COC(=O)c1ccc(NC(=O)COC(=O)CCC2CCCC2)cc1` to `COc1ccc(NC(=O)CSc2nnc(C3CC3)n2C)cc1`, the “hERG current change (%, negative = inhibition) at 1uM” value rises from 1% to 9.99%.

Compared with `CCOc1ccccc1Oc1c(C)oc2c(CN3CCN(C)CC3)c(O)ccc2c1=O`, `CCCCn1nc2cc(C(=O)NC3CCCc4ccccc43)ccc2c1OCC` (stereo not shown) is higher in “hERG current change (%, negative = inhibition) at 1uM” value: -2.34% for the first, 1.34% for the second.

Going from `COc1cc(Sc2ccc(C)cc2)c(OC)cc1N.Cl` to `COc1ccc(NC(=S)NCCc2c(C)[nH]c3ccc(OC)cc23)cc1`, the “hERG current change (%, negative = inhibition) at 1uM” value rises from 7.24% to 8.44%.

Compared with `O=C(C1=C[C@H](c2csc3ccccc23)C[C@H](OCc2ccc(CO)cc2)O1)N1CCN(Cc2ccccc2)CC1`, `Cc1ccc(C(=O)N(CCC2=CCCCC2)c2c(N)n(Cc3ccccc3)c(=O)[nH]c2=O)o1` is lower in “hERG current change (%, negative = inhibition) at 1uM” value: 9.99% for the first, 5.54% for the second.

First: CC(=O)OCCN(CCOC(C)=O)c1c(C)[nH]c(=O)[nH]c1=O
Second: COCCCN(C(=S)NC(=O)c1ccc(C(C)(C)C)cc1)c1c(N)n(Cc2ccccc2)c(=O)[nH]c1=O
The “hERG current change (%, negative = inhibition) at 1uM” value of the first is higher: 13.3% for the first, 3.27% for the second.

Compared with `Cc1ccc(C)n1NC(=O)c1cccs1`, `CC(=O)N1CCN(C(=O)CNC(=O)c2cccs2)CC1` is lower in “hERG current change (%, negative = inhibition) at 1uM” value: 8.58% for the first, 0.464% for the second.

Compared with `CC/C=C/CC(=O)N[C@@H](c1ccccc1)[C@@H](O)C(=O)O[C@H]1C[C@@]2(O)[C@@H](OC(=O)c3ccccc3)C3[C@](C)(C(=O)[C@H](OC(C)=O)C(=C1C)C2(C)C)[C@@H](O)C[C@H]1OC[C@@]31OC(C)=O` (stereo partly shown), `O=C(CNC(=O)c1ccccc1)c1ccccc1` is lower in “hERG current change (%, negative = inhibition) at 1uM” value: 11.3% for the first, 8.05% for the second.

Going from `[O-][n+]1c(/C=C/c2ccccc2)ccc2ccccc21` to `S=C(N=Nc1ccccc1)NNc1ccccc1`, the “hERG current change (%, negative = inhibition) at 1uM” value falls from 16.4% to 14.9%.

First: CCc1ccc2oc(C(=O)NC3CCS(=O)(=O)C3)cc(=O)c2c1 (stereo not shown)
Second: Cc1cccn2c(=O)c3cc(C(=O)NC4CCS(=O)(=O)C4)n(Cc4ccccc4)c3nc12 (stereo not shown)
The “hERG current change (%, negative = inhibition) at 1uM” value of the first is higher: 12.9% for the first, 10% for the second.

Going from `COCCNC(=O)C1CCC(Cn2c(=S)[nH]c3ccccc3c2=O)CC1` (stereo not shown) to `CC1CCC(NC(=O)C(Cc2ccccc2)n2cccc2)CC1` (stereo not shown), the “hERG current change (%, negative = inhibition) at 1uM” value rises from -6.53% to 2.79%.

Going from `O=C(O)/C=C/C(=O)Nc1ccc(N2CCOCC2)nc1N1CCOCC1` to `Cc1ccc(S(=O)(=O)N2CCC(C(=O)NCCN3CCOCC3)CC2)cc1C`, the “hERG current change (%, negative = inhibition) at 1uM” value rises from 8.86% to 8.96%.

First: Cc1cccc(C)c1NCc1n[nH]c(=S)n1-c1ccccc1
Second: Cc1cccc(C)c1NC(=O)COc1ccccc1C(=O)Nc1ccc(Br)cn1
The “hERG current change (%, negative = inhibition) at 1uM” value of the first is higher: 18.5% for the first, 16.3% for the second.

Compared with `O=C1c2ccc(Oc3ccc([N+](=O)[O-])cc3)cc2C(=O)N1CCO`, `Cc1c(NC(=S)NC(=O)c2cccc([N+](=O)[O-])c2)c(=O)n(-c2ccccc2)n1C` is lower in “hERG current change (%, negative = inhibition) at 1uM” value: 4.16% for the first, 2.84% for the second.

Compared with `COc1ccc2nc(C)cc(Nc3ccc(C(=O)O)cc3)c2c1`, `COc1ccc(C(=O)C/C(=C\C(=O)c2ccc(C)cc2)c2ccccc2)cc1` is lower in “hERG current change (%, negative = inhibition) at 1uM” value: 21.5% for the first, 12.4% for the second.

Compared with `CC[N+](CC)(CC)CC(=O)Nc1ccc(SC(F)F)cc1.[Cl-]`, `O=C(CCNC(=O)c1ccco1)Nc1ccc(OC(F)(F)F)cc1` is lower in “hERG current change (%, negative = inhibition) at 1uM” value: 27.1% for the first, 12% for the second.

Going from `Cc1ccc(/C=C2/C(=O)NC(=O)N(C)C2=O)cc1` to `Cc1ccc(OCCOC(=O)CN2C(=O)NC3(CCCC3)C2=O)cc1`, the “hERG current change (%, negative = inhibition) at 1uM” value rises from 7.48% to 16.2%.

Compared with `CCN(CC)Cc1cc(C(C)=O)ccc1O.Cl`, `C/C(=N\NC(=O)c1ccc(O)cc1O)c1cccnc1` is higher in “hERG current change (%, negative = inhibition) at 1uM” value: 5.64% for the first, 17.4% for the second.

Going from `CCCCNC1CCS(=O)(=O)C1` (stereo not shown) to `CC(=O)NC(CCCCNC(=S)NC1CCCCC1)C(=O)O` (stereo not shown), the “hERG current change (%, negative = inhibition) at 1uM” value rises from 7.42% to 8.23%.

Going from `COc1cccc(CNC(=O)CCc2nnc3ccc(NCCCN4CCCC4=O)nn23)c1` to `COc1ccc(S(=O)(=O)C(C#N)c2nc3ccccc3nc2N2CCCC(C)C2)cc1` (stereo not shown), the “hERG current change (%, negative = inhibition) at 1uM” value rises from 23.7% to 26.6%.

Going from `CNC(=S)N1CCN=C1Nc1nc(C)cc(C)n1` to `CCOC(=O)C1=C(C)N=c2s/c(=C\C(=O)OC)c(=O)n2C1c1ccc(OC)cc1` (stereo not shown), the “hERG current change (%, negative = inhibition) at 1uM” value falls from 7.98% to -9.14%.

Going from `Cc1ccc(C(=O)NC(=S)Nc2cccc(-c3nc4ccccc4s3)c2)cc1` to `O=C(Nc1ccc(Nc2ccccc2)cc1)c1c(Cl)cccc1Cl`, the “hERG current change (%, negative = inhibition) at 1uM” value falls from 14.8% to 12.4%.

First: CCOP(=O)(OCC)c1nc(-c2ccccc2)oc1NCc1ccccc1
Second: Cc1ccccc1C(=O)Oc1cccc(Nc2ncnc3ccccc23)c1
The “hERG current change (%, negative = inhibition) at 1uM” value of the first is higher: 9.55% for the first, 4.05% for the second.

Going from `COc1ccc(NC(=O)CNc2ccc(C#N)cc2)cc1` to `COc1ccc(S(=O)(=O)NCCc2c[nH]c3ccc(Cl)cc23)cc1`, the “hERG current change (%, negative = inhibition) at 1uM” value rises from 5.56% to 21.2%.

Going from `O=C(Nc1nccs1)C(F)(F)C(F)(F)C(F)(F)C(=O)Nc1nccs1` to `C=CCSc1n[nH]c(=O)n1-c1cccc(C(F)(F)F)c1`, the “hERG current change (%, negative = inhibition) at 1uM” value rises from 5.46% to 11%.

Compared with `O=C(O)CCCCCCCCCC(=O)c1cccs1`, `CC(=O)N1C(C(=O)O)CSC1c1cccc(C)c1` (stereo not shown) is higher in “hERG current change (%, negative = inhibition) at 1uM” value: 17.1% for the first, 24.1% for the second.

Going from `Cn1c(=O)n(C)c2cc(NS(=O)(=O)c3ccccc3)ccc21` to `CCC(=O)N1N=C(c2ccc(NS(C)(=O)=O)cc2)CC1c1ccc(C)cc1` (stereo not shown), the “hERG current change (%, negative = inhibition) at 1uM” value falls from 10.8% to -19.6%.

First: C=C[C@@](C)(O)CC[C@@H]1[C@@]2(C)CCCC(C)(C)[C@@H]2CC[C@@]1(C)O
Second: O=C(NCCC(=O)N1CCC2(CC1)NCCc1[nH]cnc12)c1ccc(F)c(F)c1
The “hERG current change (%, negative = inhibition) at 1uM” value of the first is lower: -4.15% for the first, 9.73% for the second.

Compared with `CCN(CC)C(=O)CN1C(=O)COCC1=O`, `CCCc1nnc(SCC(=O)NC2CC2)n1CC` is higher in “hERG current change (%, negative = inhibition) at 1uM” value: 5.42% for the first, 16.9% for the second.

First: Nc1ccccc1C(=O)N1CCc2ccccc21
Second: O=C(/C=C/c1ccccc1O)c1ccco1
The “hERG current change (%, negative = inhibition) at 1uM” value of the first is higher: 13.2% for the first, 9.1% for the second.

Going from `Cc1ncc([N+](=O)[O-])n1CCOC(=O)Nc1ccc(Cl)c(Cl)c1` to `CCOC(=O)c1cc(CC)sc1NC(=O)c1ccc(N2CCOCC2)c([N+](=O)[O-])c1`, the “hERG current change (%, negative = inhibition) at 1uM” value rises from 1.97% to 5.05%.

First: O=C(O)C1Nc2c(Cl)cc(Cl)c(Cl)c2C2C=CCC12 (stereo not shown)
Second: Cc1nn(-c2cccc(Cl)c2)nc1C(=O)Nc1cccc(C(=O)NC2CC2)c1
The “hERG current change (%, negative = inhibition) at 1uM” value of the first is higher: 14.2% for the first, 4.59% for the second.

First: Cc1ccc(C(=O)N2CCN(c3ccccc3F)CC2)cc1NC1=NC2CS(=O)(=O)CC2S1 (stereo not shown)
Second: O=C(CSc1nc2ccccc2c(=O)n1CCCN1CCOCC1)Nc1cccc(S(=O)(=O)N2CCCCCC2)c1
The “hERG current change (%, negative = inhibition) at 1uM” value of the first is higher: 17.8% for the first, -9.75% for the second.

Going from `O=C(C1COc2ccccc2O1)N1CCCC1` (stereo not shown) to `O=[N+]([O-])/C(Cl)=C1\NCCN1Cc1ccc(Cl)nc1`, the “hERG current change (%, negative = inhibition) at 1uM” value falls from 17.5% to 8.99%.
